Experimental data from the supplement of paper PMC6531468.
The other results are listed elsewhere or left out. Read counts after selection give these values, which scatter widely. Scores sum up all selected molecules that hold the word; the word was not tested alone.

Assays:
Assay in all cases: 6-mer SELEX enrichment z-score vs GST control; IMP3 is the RNA-binding protein IGF2BP3; higher = more enriched by binding
[1] = test system: IMP3 KH1-4; conditions: construct: KH1-4 (164-579); SELEX round: R4
Procedure: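 SELEX-seq with GST-tagged IMP3 KH1-4 (Pro164-Lys579) and an N40 RNA pool, round 4. 6-mer z-score of sequence-tag enrichment normalised to the corresponding GST SELEX round; RNA k-mers written as DNA (T for U).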

[2] = test system: IMP3 RRM1-2; conditions: construct: RRM1-2 (1-163); SELEX round: R2
Procedure: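 SELEX-seq with GST-tagged IMP3 RRM1-2 (Met1-Asn163) and an N40 RNA pool, round 2. 6-mer enrichment z-score normalised to GST SELEX. RNA written as DNA (T = U).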

[3] = molecular target: IMP3 full-length (UniProt O00425); conditions: construct: FL IMP3 (1-579); SELEX round: R4
Procedure: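 SELEX-seq with GST-tagged full-length IMP3 and an N40 RNA pool, round 4. Each 6-mer is scored as an enrichment z-score of sequence tags containing it, normalised to the matching GST SELEX round. RNA written as DNA (T = U).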

[4] = test system: IMP3 KH1-2; conditions: construct: KH1-2 (164-376); SELEX round: R4
Procedure: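 SELEX-seq with GST-tagged IMP3 KH1-2 (Pro164-Phe376) and an N40 RNA pool, round 4 (stringent 300/600 mM KCl washes). 6-mer z-score of sequence-tag enrichment normalised to the corresponding GST SELEX round; RNA k-mers written as DNA (T for U).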

[5] = test system: IMP3 KH3-4; conditions: construct: KH3-4 (377-579); SELEX round: R4
Procedure: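 SELEX-seq with GST-tagged IMP3 KH3-4 (Pro377-Lys579) and an N40 RNA pool, round 4. 6-mer z-score of sequence-tag enrichment normalised to the corresponding GST SELEX round; RNA k-mers written as DNA (T for U).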

Sequence of IMP3 KH3-4 (chain, as listed by the source): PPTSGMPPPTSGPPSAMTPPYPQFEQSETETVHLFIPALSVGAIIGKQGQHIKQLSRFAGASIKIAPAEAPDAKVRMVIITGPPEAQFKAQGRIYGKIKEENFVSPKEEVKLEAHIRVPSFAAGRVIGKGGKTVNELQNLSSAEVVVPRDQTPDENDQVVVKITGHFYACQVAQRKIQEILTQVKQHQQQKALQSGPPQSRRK
Sequence of IMP3 RRM1-2 (chain, as listed by the source): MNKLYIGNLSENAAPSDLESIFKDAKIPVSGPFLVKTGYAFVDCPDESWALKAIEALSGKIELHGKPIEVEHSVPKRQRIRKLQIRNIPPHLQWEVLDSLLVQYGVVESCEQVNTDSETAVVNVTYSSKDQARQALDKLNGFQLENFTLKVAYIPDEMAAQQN
Sequence of UniProt O00425 (O00425 whole entry): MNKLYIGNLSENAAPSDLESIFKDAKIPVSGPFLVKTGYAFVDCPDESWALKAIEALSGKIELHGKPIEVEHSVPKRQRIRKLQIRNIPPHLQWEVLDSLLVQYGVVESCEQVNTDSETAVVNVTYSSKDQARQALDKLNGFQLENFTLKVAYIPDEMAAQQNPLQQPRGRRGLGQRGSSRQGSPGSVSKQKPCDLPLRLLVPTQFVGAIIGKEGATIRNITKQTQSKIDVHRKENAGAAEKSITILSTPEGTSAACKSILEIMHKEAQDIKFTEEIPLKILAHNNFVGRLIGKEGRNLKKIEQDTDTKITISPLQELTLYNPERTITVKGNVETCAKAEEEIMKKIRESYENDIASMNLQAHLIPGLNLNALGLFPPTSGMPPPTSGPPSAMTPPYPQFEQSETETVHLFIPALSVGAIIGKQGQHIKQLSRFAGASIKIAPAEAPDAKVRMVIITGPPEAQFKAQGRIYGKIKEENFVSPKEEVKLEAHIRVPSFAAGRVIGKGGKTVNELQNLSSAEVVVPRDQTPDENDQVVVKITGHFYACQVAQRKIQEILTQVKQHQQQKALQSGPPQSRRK
Sequence of IMP3 KH1-4 (chain, as listed by the source): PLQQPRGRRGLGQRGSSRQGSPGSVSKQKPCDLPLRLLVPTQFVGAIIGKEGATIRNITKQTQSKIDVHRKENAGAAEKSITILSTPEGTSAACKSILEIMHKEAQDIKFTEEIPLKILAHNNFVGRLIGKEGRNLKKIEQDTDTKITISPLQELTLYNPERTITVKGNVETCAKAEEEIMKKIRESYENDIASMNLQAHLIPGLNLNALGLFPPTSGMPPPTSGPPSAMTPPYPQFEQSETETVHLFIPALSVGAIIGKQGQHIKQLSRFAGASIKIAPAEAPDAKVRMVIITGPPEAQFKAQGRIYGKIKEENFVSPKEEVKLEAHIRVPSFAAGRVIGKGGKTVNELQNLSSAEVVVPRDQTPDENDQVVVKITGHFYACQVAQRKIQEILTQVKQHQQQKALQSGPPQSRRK
Sequence of IMP3 KH1-2 (chain, as listed by the source): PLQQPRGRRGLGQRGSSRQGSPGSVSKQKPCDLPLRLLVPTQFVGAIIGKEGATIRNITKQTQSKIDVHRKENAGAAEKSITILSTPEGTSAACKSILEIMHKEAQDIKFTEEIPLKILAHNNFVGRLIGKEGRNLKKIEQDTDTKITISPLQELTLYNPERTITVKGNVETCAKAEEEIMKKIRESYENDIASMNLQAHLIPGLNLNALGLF

Row | Sequence | 6-mer SELEX enrichment z-score [1] | 6-mer SELEX enrichment z-score [2] | 6-mer SELEX enrichment z-score [3] | 6-mer SELEX enrichment z-score [4] | 6-mer SELEX enrichment z-score [5]
1 | TCAGTG | -0.02 | 0.595 | 0.477 | -0.073 | -0.026
2 | ACTTGA | -0.931 | -0.491 | -0.846 | -0.954 | -0.836
3 | CAAGAT | 0.288 | -0.365 | -0.212 | 0.166 | 0.487
4 | TATCAT | 1.5 | 1.36 | 1.48 | 1.48 | 1.53
5 | TGGTCG | 0.236 | 0.402 | 0.521 | 0.252 | 0.286
6 | GTCACT | 0.295 | 0.452 | 0.359 | 0.113 | 0.124
7 | CGATGG | 0.002 | -0.275 | 0.039 | 0.02 | 0.006
8 | CAGGTG | 0.145 | 0.326 | 0.427 | 0.087 | 0.078
9 | GGAACG | -0.044 | -0.946 | -0.155 | -0.137 | -0.187
10 | TCGATT | 0.047 | 0.127 | -0.15 | 0.008 | 0.188
11 | CGGTAA | 0.017 | -0.315 | -0.098 | -0.09 | 0.186
12 | ACGCTA | 0.089 | -0.294 | -0.309 | 0.151 | 0.109
13 | CGTGCC | -1.05 | -0.201 | -0.267 | -0.919 | -1.17
14 | GACTGT | -0.117 | -0.403 | -0.401 | -0.134 | -0.13
15 | GATACA | 1.2 | 0.12 | 0.867 | 1.18 | 1.17
16 | CTACTG | 0.187 | -0.094 | -0.229 | 0.269 | -0.004
17 | TATGGT | 0.337 | 0.393 | 0.205 | 0.287 | 0.48
18 | GTCATT | 0.515 | 0.567 | 0.716 | 0.361 | 0.541
19 | CGTACA | -0.65 | -0.127 | 0.314 | -0.568 | -0.803
20 | GAACAT | 1.14 | 0.616 | 1.12 | 0.84 | 1.21

Row | Sequence | 6-mer SELEX enrichment z-score [1] | 6-mer SELEX enrichment z-score [2] | 6-mer SELEX enrichment z-score [3] | 6-mer SELEX enrichment z-score [4] | 6-mer SELEX enrichment z-score [5]
21 | GGCTTC | -0.034 | 0.6 | 0.403 | 0.044 | 0.086
22 | TCCATT | 0.981 | 0.65 | 0.558 | 0.921 | 0.72
23 | ATTTTG | 0.146 | 0.18 | -0.096 | 0.128 | 0.537
24 | TTGGCT | 0.051 | 0.558 | 0.199 | 0.081 | 0.253
25 | GCTAGA | -0.308 | -0.209 | -0.296 | -0.306 | -0.097
26 | GTTCAC | 0.166 | 0.495 | 0.409 | 0.052 | -0.114
27 | ACTAGC | -0.175 | -0.008 | -0.227 | -0.286 | -0.287
28 | GCTGTT | 0.06 | 0.311 | 0.02 | 0.116 | 0.114
29 | GCTGCC | 0.04 | -0.055 | 0.21 | 0.131 | -0.364
30 | TATTTC | 1.17 | 0.441 | 0.458 | 1.28 | 1.24
31 | TCGGTG | 0.007 | 0.329 | 0.364 | -0.013 | 0.114
32 | TCTGCT | 0.261 | 0.389 | 0.156 | 0.284 | 0.142
33 | TGGATC | -0.16 | 0.212 | -0.086 | -0.252 | -0.112
34 | TTTTCC | 0.997 | 0.099 | 0.141 | 1.07 | 0.798
35 | ACCGCT | 0.181 | -0.381 | -0.03 | 0.588 | -0.151
36 | ATCAGC | -0.042 | 1.1 | 1.2 | -0.022 | -0.293
37 | GAAGGC | 0.047 | -0.358 | 0.32 | 0.06 | 0.248
38 | CTCATG | -0.159 | 0.588 | 0.344 | -0.199 | -0.295
39 | AAAGCG | -3.16 | -1.29 | -2.35 | -3.03 | -2.6
40 | CCGGGT | -0.817 | -0.187 | -0.076 | -0.607 | -0.593

Row | Sequence | 6-mer SELEX enrichment z-score [1] | 6-mer SELEX enrichment z-score [2] | 6-mer SELEX enrichment z-score [3] | 6-mer SELEX enrichment z-score [4] | 6-mer SELEX enrichment z-score [5]
41 | GATTGC | 0.124 | -0.323 | -0.301 | 0.034 | 0.183
42 | AACGCA | 0.149 | -0.032 | 0.006 | 0.08 | -0.252
43 | GTGTGG | -0.011 | 0.176 | -0.084 | 0.06 | 0.078
44 | GGTTAA | -0.107 | -0.034 | -0.257 | -0.203 | 0.132
45 | GGGGTG | 0.67 | 0.323 | 0.472 | 1.01 | 0.938
46 | GCCGTA | -0.748 | -0.381 | -0.188 | -0.615 | -0.592
47 | TTATTA | 1.43 | 0.257 | 0.345 | 1.22 | 1.94
48 | TGGACG | -0.078 | -0.409 | -0.054 | -0.136 | -0.193
49 | CGTGTT | -0.381 | 0.152 | -0.187 | -0.376 | -0.253
50 | CGGCAA | 1.83 | 0.052 | 2.47 | 0.99 | 1.57
51 | CGCGGA | -0.534 | -0.447 | -0.002 | -0.414 | -0.454
52 | ACGTCC | -0.883 | -0.321 | -0.212 | -0.898 | -1.2
53 | GCATCA | 1.7 | 1.04 | 3.1 | 0.947 | 0.728
54 | GCGGCA | 2.1 | 0.27 | 2.88 | 1.5 | 1.75
55 | AATCAC | 0.974 | 3.13 | 1.82 | 1.06 | 0.603
56 | GTCGCA | 0.833 | 0.31 | 0.93 | 0.545 | 0.435
57 | GAGCTA | -1.52 | -0.05 | -0.744 | -1.37 | -1.22
58 | GGTTGT | -0.003 | 0.496 | 0.056 | 0.06 | 0.246
59 | AGGGAC | 0.23 | -0.219 | -0.113 | 0.184 | 0.11
60 | AGCCAG | -0.153 | -0.321 | 0.15 | -0.201 | -0.387
